Laboratory results taken from the supplement of paper PMC4166925.
± gives the standard deviation of the averaged measurements. Over roughly 33,000 sequences, “E-score (dimensionless, -0.5 to 0.5)” has its median near -0.049; the highest 2% begin near 0.37. This is one part of the list.

Tested on: T1, PmTbr T-box DNA-binding domain (GST fusion)
T1 sequence: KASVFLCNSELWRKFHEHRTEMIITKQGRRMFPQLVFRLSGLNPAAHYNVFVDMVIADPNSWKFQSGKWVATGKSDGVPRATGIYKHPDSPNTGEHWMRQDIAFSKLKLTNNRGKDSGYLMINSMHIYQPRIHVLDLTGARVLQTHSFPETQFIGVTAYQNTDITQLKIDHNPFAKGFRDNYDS
Assay: PBM E-score of 8-mer (E-score (dimensionless, -0.5 to 0.5)); Tbr is Tbrain of the sea star Patiria miniata (Pm) or the sea urchin Strongylocentrotus purpuratus (Sp); higher = stronger binding preference; most listed sequences are background and not binding sites
Details: the construct has about 5 more residues each side
Procedure, shortened: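 Universal Agilent oligonucleotide arrays, made double-stranded by primer extension, were incubated with 200 nM GST-fused Tbr T-box DNA-binding domain in PBS (pH 7.5). The protein was expressed in BL21 E. coli at 20 °C and purified by glutathione affinity chromatography. After scanning and quantification, the Universal PBM Analysis Suite assigned an enrichment E-score to each ungapped 8-mer, averaged over duplicate arrays.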

Sequence	PBM E-score of 8-mer
CTGTAGCC	-0.0966 ± 0.055
TGTAGCAA	-0.0247 ± 0.024
GCTCACCA	-0.0238 ± 0.034
GGGCAGGA	-0.23 ± 0.033
AAGCTTCC	-0.203 ± 0.04
ATTATGTC	-0.151 ± 0.0087
GCTCCCCA	-0.0445 ± 0.0037
CTTGGGCA	-0.0563 ± 0.032
AACGATTA	-0.0891 ± 0.098
ATCGGCGA	-0.0552 ± 0.02
ATACGTAT	-0.0177 ± 0.13
ATAGATTC	-0.134 ± 0.0044
ACCCTGCA	-0.101 ± 0.045
CAACATGG	0.0369 ± 0.033
ATGGCACG	0.189 ± 0.041
GGGACGTA	-0.286 ± 0.12
AAAAGTGT	0.413 ± 0.015
CATTTGGA	-0.0402 ± 0.078
AGAGTTCA	0.0192 ± 0.0048
CGGGGGGA	-0.146 ± 0.0095
GACCCGTC	0.135 ± 0.11
AACATATA	-0.144 ± 0.024
AGGGCTGG	-0.231 ± 0.029
CTAAGTTC	-0.155 ± 0.007
GGAGATCC	-0.228 ± 0.033

Sequence	PBM E-score of 8-mer
AATGTCTA	-0.0762 ± 0.039
TTGCAAAA	0.107 ± 0.0079
CACCGACC	-0.0662 ± 0.0026
AATGTTAA	-0.0297 ± 0.11
ACTGCGAT	0.107 ± 0.048
AGACCGCA	-0.254 ± 0.031
CAAGCAAG	0.0511 ± 0.028
AGCTCCAA	-0.174 ± 0.0019
GGCCTCGA	-0.258 ± 0.11
CCTGGCAA	0.0402 ± 0.0016
GTCACTAA	0.2958 ± 0.00092
ATTACCGC	-0.067 ± 0.032
TCAAGGGA	-0.159 ± 0.15
AGGCGCGA	0.463 ± 0.0056
GCTTCCCC	-0.155 ± 0.054
ATCAACCC	-0.12 ± 0.079
AAGGGTGC	0.301 ± 0.047
TAGTCTCA	0.093 ± 0.063
ACCCCACA	0.265 ± 0.016
CATTTCCG	-0.0507 ± 0.037
ACCCAGAG	-0.0469 ± 0.037
CTACGACA	0.0921 ± 0.12
CCCGCCAG	0.117 ± 0.083
CAAAAAGA	-0.206 ± 0.063
CGTTAGGC	0.0768 ± 0.046

Sequence	PBM E-score of 8-mer
AACCTACT	-0.221 ± 0.044
CTCGGAGC	-0.113 ± 0.037
AATAAGCG	0.152 ± 0.028
CCCGTAGC	0.0376 ± 0.019
CTACACAC	0.129 ± 0.041
AATTCACA	0.2798 ± 0.0014
CAACGTTA	0.0492 ± 0.009
GACGGGGC	-0.174 ± 0.08
CGAAGTGC	0.253 ± 0.02
GTATTCCA	-0.108 ± 0.051
TTACTAAA	-0.175 ± 0.043
CCTAGGCG	0.0867 ± 0.043
GTCAGAAA	0.00026 ± 0.08
ACACAACC	0.142 ± 0.038
CATGATTC	-0.188 ± 0.014
GGCAAGTA	0.0544 ± 0.096
AATAAAAC	0.0319 ± 0.12
ATAATGGA	-0.0613 ± 0.033
CGTGCAGC	0.0118 ± 0.029
ACCCATTC	-0.0983 ± 0.0046
GGGGGCCA	-0.0934 ± 0.068
ATTACTAA	-0.195 ± 0.053
ACATGCTG	0.011 ± 0.053
ATACTATG	-0.17 ± 0.068
CCTTAACG	0.00703 ± 0.089

Sequence	PBM E-score of 8-mer
CACCACCA	0.201 ± 0.034
AAATGCGG	-0.0504 ± 0.077
GTTTGAAA	-0.148 ± 0.037
ACAATGTG	0.297 ± 0.0039
GCCACATA	0.175 ± 0.04
CGCTTACC	0.0245 ± 0.057
ACATGCGT	0.0464 ± 0.05
CGACGGAC	0.0197 ± 0.024
CCATTGGA	-0.0722 ± 0.069
GATGTGTA	0.289 ± 0.02
CATTTCGC	0.207 ± 0.041
ATCAAGCG	0.0692 ± 0.061
CTTTGCGC	0.169 ± 0.0022
AAAATGAA	-0.0303 ± 0.11
GCGCATTA	-0.196 ± 0.0095
AGATCTTA	-0.171 ± 0.089
GTTACTCA	-0.0389 ± 0.019
CTTGCGCA	0.135 ± 0.026
CGTGATGC	0.0694 ± 0.034
CGGGATGC	-0.249 ± 0.11
CCGACGGC	-0.102 ± 0.024
CGTGTCAA	0.4335 ± 0.00096
CAGTCCCG	-0.0959 ± 0.0045
GCGATTAA	0.152 ± 0.012
AGTAGCTG	-0.0721 ± 0.044

Sequence	PBM E-score of 8-mer
AACTATAT	-0.0551 ± 0.028
GAGGCGTA	0.102 ± 0.02
CGTGCTAG	0.287 ± 0.027
ATCATCTG	-0.122 ± 0.038
AAGATTTC	0.0187 ± 0.071
ACCATTTG	-0.0848 ± 0.00096
TCAGACCA	-0.135 ± 0.036
AGCTTGAA	-0.15 ± 0.03
GAACTAAA	-0.164 ± 0.022
CCTTATGA	0.217 ± 0.028
CCTTTCAG	-0.111 ± 0.061
GGAGCGCA	-0.109 ± 0.017
CAAGTTAC	0.0103 ± 0.025
ATTTTACC	-0.176 ± 0.075
CGCTTCCA	0.0715 ± 0.03
GTTTGGAA	-0.141 ± 0.026
ATAGGCGG	-0.0787 ± 0.0033
GGACAGAC	-0.068 ± 0.043
CGCGACAC	0.375 ± 0.02
AGTGCGTA	0.146 ± 0.048
GAAGGATC	-0.0766 ± 0.026
ACCACGTA	0.00427 ± 0.056
CGAGGAAG	-0.107 ± 0.092
CGTGAGCA	0.0168 ± 0.032
CAATACCG	-0.277 ± 0.1

Sequence	PBM E-score of 8-mer
ACTTCTCA	0.176 ± 0.003
GACAGTGC	0.111 ± 0.044
ATTATTTC	0.117 ± 0.032
AGGCCGTG	0.0805 ± 0.0058
AAGTAATT	-0.163 ± 0.092
CACAACGC	0.112 ± 0.0016
CCTCCCAG	0.0865 ± 0.021
GAATGCGA	0.0797 ± 0.0074
AGTAGCTA	0.0372 ± 0.007
CTATCCAG	-0.215 ± 0.0065
GTTTCGGA	-0.152 ± 0.0021
GGTAGCAC	0.327 ± 0.013
AGCATACA	0.0856 ± 0.029
CTCAAGCC	-0.0914 ± 0.048
CGGTGGAG	-0.127 ± 0.0071
GAGAGAGC	0.00499 ± 0.031
CGGCCGAA	-0.153 ± 0.0055
AGCCTTAT	0.0216 ± 0.083
GGGATCAA	-0.161 ± 0.024
GACGGACA	0.0362 ± 0.0049
ATTGTCTC	-0.0898 ± 0.011
CGCCATGA	0.0544 ± 0.021
TACTGTAA	-0.115 ± 0.024
TGAAACCA	-0.0657 ± 0.047
CAACTCGA	0.0441 ± 0.09

Sequence	PBM E-score of 8-mer
AGTAGGCG	0.0665 ± 0.043
CTATAGTA	-0.246 ± 0.039
ACGACTGA	-0.196 ± 0.0029
ATTTCAAA	-0.205 ± 0.028
GGTGGGAA	0.339 ± 0.038
CCTCCGCC	0.00324 ± 0.031
CACGCGCA	0.075 ± 0.061
AATAGCTG	0.0454 ± 0.085
CGAGATGC	0.0132 ± 0.073
ATCCTTGA	-0.247 ± 0.034
AATTTCCG	-0.246 ± 0.06
ATATCAGG	-0.106 ± 0.053
GGGACCCA	-0.119 ± 0.098
ACCCTCAA	0.0906 ± 0.052
AGACGTGA	0.233 ± 0.043
AACTGAGC	-0.298 ± 0.092
CCGATAGG	0.00046 ± 0.056
CGTCATGC	-0.0192 ± 0.0039
ATCAATGG	-0.112 ± 0.042
AGACATGG	-0.316 ± 0.022
GTTTGTGA	0.033 ± 0.03
AGGAGAAT	-0.218 ± 0.014
AGTTGATC	-0.041 ± 0.049
ACTGCCAA	0.0668 ± 0.0018
AGAATATC	-0.102 ± 0.0082

Sequence	PBM E-score of 8-mer
ACGAACGA	-0.0282 ± 0.085
AAGGTCTC	-0.157 ± 0.02
TTCGCAAA	0.175 ± 0.027
AACCCCTG	-0.0695 ± 0.0011
GCAACGAA	-0.0712 ± 0.091
ATCTAAAC	-0.0413 ± 0.056
AATTGATG	-0.146 ± 0.18
ATGACGTC	-0.0322 ± 0.024
AACAGGTT	0.238 ± 0.023
AGTTCATG	0.0943 ± 0.0081
CAATCAGC	0.0229 ± 0.0086
CATGCGCC	-0.167 ± 0.023
CCCAGCGC	-0.0201 ± 0.0062
AATTGCAA	0.0376 ± 0.09
ACCGACTG	-0.101 ± 0.099
AACAAAAC	0.0319 ± 0.0046
ATAACAGA	-0.043 ± 0.07
CAGTAGGA	-0.0351 ± 0.022
AGGGTTGA	-0.0645 ± 0.051
AAATCCTT	-0.0952 ± 0.035
CACCGGTC	-0.201 ± 0.031
TACCGGCA	-0.219 ± 0.006
CTCGAATC	-0.0157 ± 0.0079
CCCGGGCA	-0.0324 ± 0.079
AGACCGGG	-0.218 ± 0.0096

Sequence	PBM E-score of 8-mer
ACGCAAGG	0.166 ± 0.0072
AGCGCTAG	0.245 ± 0.0052
CTACCTCA	-0.0934 ± 0.036
CATGTCCG	-0.136 ± 0.059
CCGGACGA	-0.199 ± 0.071
CCTTCAGA	-0.202 ± 0.057
CACACGCG	0.206 ± 0.0048
GAGATTCC	0.00974 ± 0.062
AATCTTCC	-0.0965 ± 0.084
ATGTTAGG	-0.186 ± 0.073
AGAAGTCT	-0.181 ± 0.015
CCATTAGA	-0.208 ± 0.051
ATCTAATG	-0.143 ± 0.031
CTACATTA	-0.1884 ± 0.0012
CACAAACA	0.0667 ± 0.018
AGAACACC	0.181 ± 0.0068
ACACAAGA	-0.0353 ± 0.01
ATTACGAC	-0.156 ± 0.12
GAGTCCCA	-0.379 ± 0.061
